The record followed here is PMC9911399, “Two distinct binding modes provide the RNA-binding protein RbFox with extraordinary sequence specificity”.

Positions count from the first letter of the chain named. This is one part of the list.

The labels stand for the following.
T1: RBFOX1 RRM (Homo sapiens, UniProt Q9NWB1 109-208)
T1 sequence: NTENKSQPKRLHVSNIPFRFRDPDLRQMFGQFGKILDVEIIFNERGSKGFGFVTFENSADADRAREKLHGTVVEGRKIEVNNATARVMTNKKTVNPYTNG

B1: GUAACCA (DNA:RNA)
RNA: GGGAGACCGGAAUUCAGAUUGUCCGUAACCAUUAAAUCCCGUCGUAGCCACCA
DNA 1: CAATCTGAATTCCGGTCTCCC
DNA 2: TGGTGGCTACGACGGGATT
B2: AGAGCAA (DNA:RNA)
RNA: B1 RNA with G25A, U26G, A28G, C30A
DNA 1: CAATCTGAATTCCGGTCTCCC
DNA 2: TGGTGGCTACGACGGGATT
B3: GUGAUAC (DNA:RNA)
RNA: B1 RNA with A27G, C29U, C30A, A31C
DNA 1: CAATCTGAATTCCGGTCTCCC
DNA 2: TGGTGGCTACGACGGGATT
B4: AAACCGG (DNA:RNA)
RNA: B1 RNA with G25A, U26A, A28C, C30G, A31G
DNA 1: CAATCTGAATTCCGGTCTCCC
DNA 2: TGGTGGCTACGACGGGATT
B5: UUAAGUU (DNA:RNA)
RNA: B1 RNA with G25U, C29G, C30U, A31U
DNA 1: CAATCTGAATTCCGGTCTCCC
DNA 2: TGGTGGCTACGACGGGATT
B6: CCGGGGU (DNA:RNA)
RNA: GGGAGACCGGAAUUCAGAUUGUCCCCGGGGUUUAAAUCCCGUCGUAGCCACCA
DNA 1: CAATCTGAATTCCGGTCTCCC
DNA 2: TGGTGGCTACGACGGGATT
B7: UCCACAC (DNA:RNA)
RNA: B1 RNA with G25U, U26C, A27C, C30A, A31C
DNA 1: CAATCTGAATTCCGGTCTCCC
DNA 2: TGGTGGCTACGACGGGATT
B8: AGUGUUC (DNA:RNA)
RNA: B6 RNA with C25A, C26G, G27U, G29U, G30U, U31C
DNA 1: CAATCTGAATTCCGGTCTCCC
DNA 2: TGGTGGCTACGACGGGATT
B9: GUGUCCU (DNA:RNA)
RNA: B1 RNA with A27G, A28U, A31U
DNA 1: CAATCTGAATTCCGGTCTCCC
DNA 2: TGGTGGCTACGACGGGATT
B10: UAGUGUC (DNA:RNA)
RNA: B6 RNA with C25U, C26A, G28U, G30U, U31C
DNA 1: CAATCTGAATTCCGGTCTCCC
DNA 2: TGGTGGCTACGACGGGATT
B11: GUCACCU (DNA:RNA)
RNA: B1 RNA with A27C, A31U
DNA 1: CAATCTGAATTCCGGTCTCCC
DNA 2: TGGTGGCTACGACGGGATT
B12: AAGUGAC (DNA:RNA)
RNA: B6 RNA with C25A, C26A, G28U, G30A, U31C
DNA 1: CAATCTGAATTCCGGTCTCCC
DNA 2: TGGTGGCTACGACGGGATT
B13: UGUAUGC (DNA:RNA)
RNA: B6 RNA with C25U, C26G, G27U, G28A, G29U, U31C
DNA 1: CAATCTGAATTCCGGTCTCCC
DNA 2: TGGTGGCTACGACGGGATT
B14: GACUGUU (DNA:RNA)
RNA: B6 RNA with C25G, C26A, G27C, G28U, G30U
DNA 1: CAATCTGAATTCCGGTCTCCC
DNA 2: TGGTGGCTACGACGGGATT
B15: CCUUGUU (DNA:RNA)
RNA: B6 RNA with G27U, G28U, G30U
DNA 1: CAATCTGAATTCCGGTCTCCC
DNA 2: TGGTGGCTACGACGGGATT
B16: UAAUAGU (DNA:RNA)
RNA: B6 RNA with C25U, C26A, G27A, G28U, G29A
DNA 1: CAATCTGAATTCCGGTCTCCC
DNA 2: TGGTGGCTACGACGGGATT
B17: CCCGUGG (DNA:RNA)
RNA: B6 RNA with G27C, G29U, U31G
DNA 1: CAATCTGAATTCCGGTCTCCC
DNA 2: TGGTGGCTACGACGGGATT
B18: CAUAUAG (DNA:RNA)
RNA: B6 RNA with C26A, G27U, G28A, G29U, G30A, U31G
DNA 1: CAATCTGAATTCCGGTCTCCC
DNA 2: TGGTGGCTACGACGGGATT
B19: CGGAUGC (DNA:RNA)
RNA: B6 RNA with C26G, G28A, G29U, U31C
DNA 1: CAATCTGAATTCCGGTCTCCC
DNA 2: TGGTGGCTACGACGGGATT
B20: UGGUCGG (DNA:RNA)
RNA: B6 RNA with C25U, C26G, G28U, G29C, U31G
DNA 1: CAATCTGAATTCCGGTCTCCC
DNA 2: TGGTGGCTACGACGGGATT

The target of the assay is T1, RBFOX1 RRM. Put plainly: EMSA; HiTS-Eq, 1 nM pool, 10 min; buffer printed only for the single-RNA assays: 10 mM Tris pH 7.5, 150 mM NaCl, 3.4 mM EDTA, 0.001% NP-40, 30 C. Particulars: tags: His6 N-terminal (pET28a); label: 5' 32P. The method, boiled down: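 Relative association constants, normalised to the cognate motif, were derived by comparing read counts of each RNA species with those of the control reaction. The RNA sequenced was the free fraction, separated by 8% native PAGE after a 10 min equilibration in 50 µL of 1 nM 5′-radiolabelled RNA (7 randomized nucleotides) with increasing concentrations of purified wild-type or mutant RbFox RRM.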
A general note: Mobility shift assays separate free from complexed probe on a gel.
Regarding B1, the binding signal was 0.00327 KA relative to UGCAUGU.

Regarding B2, the binding signal was 0.0024 KA relative to UGCAUGU.

Turning to B3, the binding signal was 0.00876 KA relative to UGCAUGU.

Regarding B4, the binding signal is 0.00512 KA relative to UGCAUGU.

For B5, the binding signal is 0.0109 KA relative to UGCAUGU.

In the case of B6, the binding signal was 0.0122 KA relative to UGCAUGU.

With B7, the binding signal was 0.00248 KA relative to UGCAUGU.

Take B8: the binding signal is 0.0148 KA relative to UGCAUGU.

B9: the binding signal is 0.0156 KA relative to UGCAUGU.

Take B10: the binding signal is 0.0181 KA relative to UGCAUGU.

As to B11, the binding signal was 0.00621 KA relative to UGCAUGU.

In the case of B12, the binding signal is 0.00446 KA relative to UGCAUGU.

Consider B13, for which the binding signal was 0.0374 KA relative to UGCAUGU.

With B14, the binding signal was 0.023 KA relative to UGCAUGU.

Take B15: the binding signal was 0.0109 KA relative to UGCAUGU.

Take B16: the binding signal was 0.0101 KA relative to UGCAUGU.

In the case of B17, the binding signal was 0.00465 KA relative to UGCAUGU.

Consider B18, for which the binding signal was 0.0033 KA relative to UGCAUGU.

As for B19, the binding signal is 0.0275 KA relative to UGCAUGU.

With B20, the binding signal is 0.0166 KA relative to UGCAUGU.
